Data published in patent US11618753B2 (priority 2018, dated 2023).

These compounds were tested on MLKL phosphorylation, HT29-L23 human colorectal adenocarcinoma cells. Conditions: read-out: pMLKL HCS Cell Assay (IC50).
For COc1ncc(-c2cc(C(F)(F)F)c3c(N)ncnn23)cc1C(=O)NC1CN(C(C)c2ccc(F)cc2F)C[C@@H]1F (stereo partly drawn) [Example 437, 5-[4-amino-5-(trifluoromethyl)pyrrolo[2,1-f][1,2,4]triazin-7-yl]-N-[(3R,4S)-1-[1-(2,4-difluorophenyl)ethyl]-1-4-fluoropyrrolidin-3-yl]-2-methoxypyridine-3-carboxamide], the IC50 was 12 nM. For COc1ncc(-c2cc(C(F)(F)F)c3c(N)ncnn23)cc1C(=O)NC1CN(C2CCCC2C(O)C(F)(F)F)C[C@@H]1F (stereo partly drawn) [Example 1375, 5-[4-amino-5-(trifluoromethyl)-pyrrolo[2,1-f][1,2,4]triazin-7-yl]-N-[(3R,4S)-4-fluoro-1-[2-(2,2,2-trifluoro-1-hydroxy-ethyl)cyclopentyl]pyrrolidin-3-yl]-2-methoxypyridine-3-carboxamide], the IC50 was 39 nM. For COc1ncc(-c2cc(C(F)(F)F)c3c(N)ncnn23)cc1C(=O)NC1CN(C2CCCC2C(O)C(F)F)C[C@@H]1F (stereo partly drawn) [Example 1366, 5-[4-amino-5-(trifluoromethyl)-pyrrolo[2,1-f][1,2,4]triazin-7-yl]-N-[(3R,4S)-1-[2-(2,2-difluoro-1-hydroxyethyl)-cyclopentyl]-4-fluoro-pyrrolidin-3-yl]-2-methoxy-pyridine-3-carboxamide], the IC50 was 84 nM. In the case of COc1ncc(-c2cc(C(F)(F)F)c3c(N)ncnn23)cc1C(=O)NC1CN(C2CCCC2C(O)C(F)(F)F)C[C@@H]1F (stereo partly drawn) [Example 1362, 5-[4-amino-5-(trifluoromethyl)-pyrrolo[2,1-f][1,2,4]triazin-7-yl]-N-[(3R,4S)-4-fluoro-1-[2-(2,2,2-trifluoro-1-hydroxy-ethyl)cyclopentyl]pyrrolidin-3-yl]-2-methoxypyridine-3-carboxamide], the IC50 is reported as 260 nM.
